The list shows a part of the results. The energies were worked out here from pooled read counts, against the library average; single values are noisy.

This assay deals with T1, Pho4 (S. cerevisiae) (UniProt P07270).
T1 sequence: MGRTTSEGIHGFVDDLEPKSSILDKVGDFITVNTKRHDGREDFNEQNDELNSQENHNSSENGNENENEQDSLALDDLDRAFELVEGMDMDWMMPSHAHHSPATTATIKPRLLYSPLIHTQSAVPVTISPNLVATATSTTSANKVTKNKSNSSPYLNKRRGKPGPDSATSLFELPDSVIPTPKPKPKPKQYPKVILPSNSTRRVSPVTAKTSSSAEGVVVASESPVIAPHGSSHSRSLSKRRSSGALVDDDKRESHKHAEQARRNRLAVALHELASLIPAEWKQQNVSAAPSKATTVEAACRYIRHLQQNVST
The assay is described as follows: relative binding free energy (BET-seq); higher = weaker binding. Particulars: reference: library average.
For the sequence TTTAGCACGTGGGATC, the “relative binding free energy” value was -0.1 kcal/mol.

As to ATTGTCACGTGTTTAC, the “relative binding free energy” value was determined as 0.2 kcal/mol.

AGAATCACGTGTGTGT: the “relative binding free energy” value was found to be 0.12 kcal/mol.

For the sequence ACTTTCACGTGTGGCT, the “relative binding free energy” value came to 0.24 kcal/mol.

Consider TAACTCACGTGGTTTT, for which the “relative binding free energy” value came to 0.08 kcal/mol.

As to GTTGGCACGTGGTTGT, the “relative binding free energy” value is -0.04 kcal/mol.

For TGCTTCACGTGCAGTT, the “relative binding free energy” value turned out to be 0.3 kcal/mol.

Turning to ATCTACACGTGGTTTA, the “relative binding free energy” value was 0.09 kcal/mol.

For GTTCCCACGTGTTAGG, the “relative binding free energy” value was determined as 0.09 kcal/mol.

For the sequence TAAAACACGTGTATAT, the “relative binding free energy” value amounted to 0.1 kcal/mol.

Consider TATGTCACGTGCGCTG, for which the “relative binding free energy” value was 0.01 kcal/mol.

As for ATGCGCACGTGGTAGA, the “relative binding free energy” value was -0.22 kcal/mol.

For TGTAGCACGTGTGATC, the “relative binding free energy” value is 0.02 kcal/mol.

Regarding GTTTGCACGTGAGGTG, the “relative binding free energy” value is 0.32 kcal/mol.

For TTGCTCACGTGAGTGT, the “relative binding free energy” value stood at 0.31 kcal/mol.

GTTCACACGTGTGGTG: the “relative binding free energy” value turned out to be 0.17 kcal/mol.

For the sequence AAGGGCACGTGTGTGG, the “relative binding free energy” value is -0.08 kcal/mol.

With CTATTCACGTGGTTAG, the “relative binding free energy” value came to 0.27 kcal/mol.

As for TAGGACACGTGTGGTA, the “relative binding free energy” value was -0.04 kcal/mol.

With AGCTTCACGTGCGTTT, the “relative binding free energy” value came to 0.35 kcal/mol.

On to TATTTCACGTGTACAT, for which the “relative binding free energy” value amounted to 0.32 kcal/mol.

Take TGTATCACGTGGTAAA: the “relative binding free energy” value was 0.3 kcal/mol.

With ATAGTCACGTGTGGTA, the “relative binding free energy” value came out at 0.21 kcal/mol.

CTTATCACGTGGCGTT: the “relative binding free energy” value came to 0.1 kcal/mol.

For GGGTTCACGTGGTTGG, the “relative binding free energy” value turned out to be 0.3 kcal/mol.

Take GTATTCACGTGGGCAG: the “relative binding free energy” value worked out at 0.16 kcal/mol.

For the sequence GGGGTCACGTGTTGTG, the “relative binding free energy” value stood at 0.15 kcal/mol.

As for AGAATCACGTGCGTGT, the “relative binding free energy” value is 0.29 kcal/mol.

For the sequence GTTTTCACGTGGCGTT, the “relative binding free energy” value amounted to 0.27 kcal/mol.

As to AGTGCCACGTGGCGCG, the “relative binding free energy” value was -0.04 kcal/mol.

Consider ATAGACACGTGGAATG, for which the “relative binding free energy” value worked out at 0.07 kcal/mol.

Consider ATAGTCACGTGGAATT, for which the “relative binding free energy” value was 0.15 kcal/mol.

As for AGGGTCACGTGATCGC, the “relative binding free energy” value turned out to be 0.18 kcal/mol.

With ATGGCCACGTGGGGTC, the “relative binding free energy” value is -0.19 kcal/mol.

Consider TCGGTCACGTGTGGGA, for which the “relative binding free energy” value is 0.26 kcal/mol.

On to ATGAGCACGTGAAGGT, for which the “relative binding free energy” value was found to be 0.12 kcal/mol.

Take GGGCTCACGTGTGAAA: the “relative binding free energy” value was determined as 0.44 kcal/mol.

As to TGTAGCACGTGCGTTC, the “relative binding free energy” value is -0.15 kcal/mol.

For TAGGACACGTGTGGAT, the “relative binding free energy” value is 0.17 kcal/mol.

For the sequence AATTGCACGTGGCGAG, the “relative binding free energy” value is -0.1 kcal/mol.

Consider GGAGGCACGTGAACGG, for which the “relative binding free energy” value is 0.14 kcal/mol.

Turning to GCTGGCACGTGCTTTG, the “relative binding free energy” value was -0.04 kcal/mol.

Turning to TACTGCACGTGGCGTG, the “relative binding free energy” value was -0.08 kcal/mol.

On to CGTCGCACGTGGTAGT, for which the “relative binding free energy” value is -0.11 kcal/mol.

TTGGTCACGTGCGATT: the “relative binding free energy” value stood at 0.11 kcal/mol.

As to AAGGGCACGTGGGGGG, the “relative binding free energy” value was -0.28 kcal/mol.

Regarding GTACTCACGTGGGCGT, the “relative binding free energy” value is -0.02 kcal/mol.

Regarding CGGGTCACGTGGCTGG, the “relative binding free energy” value was 0.1 kcal/mol.

With TGAAGCACGTGATAGT, the “relative binding free energy” value turned out to be 0.04 kcal/mol.

On to TGGTGCACGTGTGGAA, for which the “relative binding free energy” value is 0.11 kcal/mol.

Consider AATAACACGTGAGTAT, for which the “relative binding free energy” value was 0.42 kcal/mol.

Consider GGATTCACGTGTAGTT, for which the “relative binding free energy” value came out at 0.32 kcal/mol.

Regarding GGGAGCACGTGATTGT, the “relative binding free energy” value was determined as 0.09 kcal/mol.

TGTGTCACGTGGAATG: the “relative binding free energy” value was 0.21 kcal/mol.

For the sequence AATTGCACGTGGTGGA, the “relative binding free energy” value was -0.07 kcal/mol.

On to TGGATCACGTGTTTCG, for which the “relative binding free energy” value is 0.09 kcal/mol.

TACATCACGTGTTTTT: the “relative binding free energy” value was determined as 0.09 kcal/mol.

As for ATTGCCACGTGATGGG, the “relative binding free energy” value was -0.07 kcal/mol.

Consider GGAGGCACGTGATGGA, for which the “relative binding free energy” value turned out to be 0.04 kcal/mol.

GATGGCACGTGGTAGA: the “relative binding free energy” value is -0.08 kcal/mol.

As to ATTATCACGTGGCAGG, the “relative binding free energy” value was determined as 0.04 kcal/mol.

In the case of TGTTACACGTGTTTAA, the “relative binding free energy” value was determined as 0.12 kcal/mol.

Consider TACTGCACGTGAGGGG, for which the “relative binding free energy” value is 0.19 kcal/mol.

For ATCAGCACGTGGCGGT, the “relative binding free energy” value was -0.13 kcal/mol.

As for GTTTTCACGTGGGTTA, the “relative binding free energy” value was determined as 0.21 kcal/mol.

In the case of GTAAACACGTGGCGGT, the “relative binding free energy” value is -0.08 kcal/mol.

For the sequence TTGGACACGTGGCGTG, the “relative binding free energy” value was -0.08 kcal/mol.

In the case of CTGTGCACGTGTGAAT, the “relative binding free energy” value amounted to 0.04 kcal/mol.

Consider TTTAGCACGTGTAACA, for which the “relative binding free energy” value amounted to 0.14 kcal/mol.

On to TGCTTCACGTGAAATG, for which the “relative binding free energy” value came to 0.47 kcal/mol.

GTTCTCACGTGGTAAG: the “relative binding free energy” value is 0.25 kcal/mol.

Take ACTCGCACGTGGGTGT: the “relative binding free energy” value was -0.18 kcal/mol.

For CAGGTCACGTGGAGGG, the “relative binding free energy” value was found to be 0.05 kcal/mol.

For GATTTCACGTGATAGA, the “relative binding free energy” value amounted to 0.46 kcal/mol.

As for TTGAGCACGTGGTCAA, the “relative binding free energy” value is -0.15 kcal/mol.

As for GGAATCACGTGGGTCT, the “relative binding free energy” value is 0.11 kcal/mol.

As for AATAACACGTGTGAAG, the “relative binding free energy” value is 0.24 kcal/mol.

Take ATGTGCACGTGTTATA: the “relative binding free energy” value is -0.09 kcal/mol.

For AATGTCACGTGCGGGC, the “relative binding free energy” value is -0.02 kcal/mol.

In the case of GTGAACACGTGAGTTT, the “relative binding free energy” value came to 0.36 kcal/mol.

As to AGATGCACGTGGGCGG, the “relative binding free energy” value was -0.16 kcal/mol.

Regarding CGTGGCACGTGGGCAA, the “relative binding free energy” value is -0.33 kcal/mol.

Take TGCTGCACGTGATGAA: the “relative binding free energy” value worked out at 0.15 kcal/mol.

As to TGTCTCACGTGTTAGG, the “relative binding free energy” value is 0.18 kcal/mol.

For GCGGTCACGTGGTGCA, the “relative binding free energy” value is 0.05 kcal/mol.

Consider TGTATCACGTGGATGT, for which the “relative binding free energy” value was 0.03 kcal/mol.

As to GAGAGCACGTGTTTTT, the “relative binding free energy” value amounted to 0.01 kcal/mol.

TGAGTCACGTGGTGAT: the “relative binding free energy” value was 0.01 kcal/mol.

Consider TACGGCACGTGGAGTG, for which the “relative binding free energy” value is -0.19 kcal/mol.

For the sequence TCTTTCACGTGTTAAG, the “relative binding free energy” value was determined as 0.22 kcal/mol.

Consider TCAGACACGTGGTAGT, for which the “relative binding free energy” value is -0.09 kcal/mol.

Consider AAGGTCACGTGGTTTA, for which the “relative binding free energy” value is 0.18 kcal/mol.

As to AGTTTCACGTGGATTA, the “relative binding free energy” value is 0.24 kcal/mol.

TGTTACACGTGTATTA: the “relative binding free energy” value was 0.18 kcal/mol.

In the case of TGTGGCACGTGCTAAG, the “relative binding free energy” value is -0.21 kcal/mol.

For TTTGGCACGTGTAAAA, the “relative binding free energy” value was 0.22 kcal/mol.

AGAATCACGTGAAAGG: the “relative binding free energy” value is 0.41 kcal/mol.

With GTGTACACGTGGCGGC, the “relative binding free energy” value was -0.05 kcal/mol.

As to TGCTTCACGTGAGGTA, the “relative binding free energy” value was determined as 0.31 kcal/mol.

With TTGTTCACGTGATCTT, the “relative binding free energy” value amounted to 0.37 kcal/mol.

In the case of AGGGACACGTGTTTGT, the “relative binding free energy” value is -0.07 kcal/mol.

As for GGGAGCACGTGTTTTT, the “relative binding free energy” value is -0.03 kcal/mol.

In the case of AGGTGCACGTGGGGCT, the “relative binding free energy” value is -0.29 kcal/mol.

Take GTGGCCACGTGTGCGT: the “relative binding free energy” value is -0.02 kcal/mol.

For the sequence CTGGGCACGTGGTAAG, the “relative binding free energy” value was -0.07 kcal/mol.

For the sequence TGGTACACGTGGCAGG, the “relative binding free energy” value was -0.02 kcal/mol.

Consider GGTGTCACGTGGCTGT, for which the “relative binding free energy” value is 0.08 kcal/mol.

Regarding GAGGTCACGTGAGGGA, the “relative binding free energy” value was found to be 0.3 kcal/mol.

GATGACACGTGCTGGT: the “relative binding free energy” value was 0.04 kcal/mol.

On to GGGGTCACGTGGTGCG, for which the “relative binding free energy” value worked out at 0.12 kcal/mol.

In the case of TGGTGCACGTGTGATG, the “relative binding free energy” value came out at 0 kcal/mol.

Take GGTGGCACGTGTGCTG: the “relative binding free energy” value was -0.03 kcal/mol.

Consider CAGATCACGTGTTTGT, for which the “relative binding free energy” value came to 0.02 kcal/mol.

With ATTTACACGTGGCGCG, the “relative binding free energy” value worked out at 0.1 kcal/mol.

For TGGTACACGTGAGTGA, the “relative binding free energy” value came to 0.31 kcal/mol.

Values taken from the BET-seq Pho4 binding data (Le et al. 2018).
